Source: PubChem BioAssay AID686979 (National Center for Advancing Translational Sciences (NCATS), 2013)
Screen size: about 420,000 compounds; about 50,000 (12%) were called active. Inconclusive means that the source gave no clear call. Such entries were picked first, then a sample of the others. Calls follow the shape of the dose curve; as a rule, active = well fitted inhibition curve with a large enough effect; inconclusive = small, poorly fitted or top-dose-only effect; inactive = flat fitted curve, though single readings scatter. Potencies of inconclusive entries are left out as doubtful fits. Some structures have more than one record in an assay (separate samples or runs), and their calls can disagree.

experiment: qHTS for Inhibitors of human tyrosyl-DNA phosphodiesterase 1 (TDP1): qHTS in cells in presence of CPT; details: chicken DT40 Tdp1-/-;hTDP1 cells + 20 nM CPT, ATP luminescence, 48 h; activity change, negative = growth inhibition: at 46.2 µM (top of the series) unless noted; also: nearly all actives have a fitted effect of over 55% in size
Text: Human tyrosyl-DNA phosphodiesterase 1 (TDP1) is a novel repair gene, and we propose to use it as a new target for anticancer drug development. TDP1 is not an essential protein, but under treatment with topoisomerase I poison (camptothecin: CPT), TDP1 works as a critical factor for cell survival. To directly identify novel TDP1 inhibitors active in a cellular environment, we have knocked-out the Tdp1 gene in chicken DT40 cells (Tdp1-/-) and generated a complemented counterpart cells that contains a stable transfection of the human TDP1 gene (Tdp1-/-;hTDP1 cells). For the primary screen, Tdp1-/-;hTDP1 cells will be exposed to small molecules in the presence or absence of CPT, and their growth kinetics will be evaluated after 48 hours by measuring ATP activity. […] The hit compounds will then be evaluated in the presence or absence of CPT using Tdp1-/- cells. […] In tertiary assays, biochemical gel-based assays will be used to assess whether the hit compounds specifically target TDP1. To this end, we have screened this cell line against the MLSMR in two primary screens. In one screen we add CPT and in the other we screen in the absence of CPT; this AID represents the screen where CPT was present. NIH Chemical Genomics Center [NCGC] NIH Molecular Libraries Probe Centers Network [MLPCN] MLPCN Grant: MH095538 Assay Submitter (PI): Yves Pommier, NCI
DT40-hTDP1 cells with 20 nM Camptothecin (add 20 microL of 1 mM CPT stock in 1 L of cell culture medium) were dispensed at 400 cells/5microL/well in tissue culture treated 1536-well white wall/solid bottom assay plates (Greiner Bio-One North America, NC, U.S.A.) using a Multidrop Combi 8 channel dispenser (Thermo Fisher, Waltham, MA, USA). 23 nL compounds and controls were transferred using the pin tool (Kalypsys, San Diego, CA, USA) to the assay plates. The assay plates were then incubated at 37 masculineC for a minimum 48 hr. Three microL of Cell Titer Glo solution was added to the plates and incubated at RT in dark for 30 min. Luminescence was read using ViewLux (Perkin Elmer) with 1 sec exposure slow speed, high gain and 2x binning.
% is scaled to controls: 0 for no effect and ±100 for the full control effect; potency is read from the fitted curve at half-maximal effect; tags tell the direction and shape of the fitted curve.

Row | Compound | Potency | activity change, negative = growth inhibition
1 | Cc1ccc(C)c(N2CCN(C3(c4ccccc4)C(=O)c4ccccc4C3=O)CC2)c1 | inactive | 
2 | CCOCCCNC(=O)Cn1ncc2c([nH]c3ccc(C)cc32)c1=O | inconclusive [inhibitor, single point] | 
3 | S=c1[nH]nc(-c2ccc3ccccc3n2)n1-c1cc(Cl)cc(Cl)c1 | inconclusive [inhibitor, single point] | 
4 | CN1CCN(c2ccc(NC(=O)c3ccc4ccccc4c3)cc2)CC1 | inconclusive [inhibitor, single point] | 
5 | CN(C)c1ccc(-c2cc(NC=O)c3ncc(-c4ccc(F)c(Cl)c4)n3c2)cc1 | inconclusive [inhibitor, single point] | 
6 | CC1(N(O)C=C2C=CC(=O)C=C2)CCCCC1=O (stereo not given) | inactive | 
7 | Cc1n[nH]c(=O)c2c(NC(=O)CSc3ccccc3F)oc(C)c12 | inconclusive [inhibitor, single point] | 
8 | Cc1nn(-c2ccccc2)c(C)c1/C=N/NC(=O)c1ccc(F)cc1 | inactive | 
9 | CCc1nc2ccc(C(=O)N3CCN(c4ccccc4)CC3)cn2c1N(C)CCC(C)C | inconclusive [inhibitor, single point] | 
10 | C[C@@H]1CN([C@@H](C)CO)C(=O)CCCn2nncc2CO[C@H]1CN(C)S(=O)(=O)c1ccccc1F | inactive | 
11 | COc1ccc2nc(NC(=O)Cc3cccs3)sc2c1 | inconclusive [inhibitor, single point] | 
12 | c1ccc2c(c1)OCC(CNc1ncnc3sccc13)O2 (stereo not given) | active: 1.16 µM | 
13 | CCOC(=O)c1ccc(NC(=O)c2cc(=O)c3ccc(C)c(C)c3o2)cc1 | inconclusive [inhibitor, single point] | 
14 | Cc1cc(C)n(-c2ccc(C(=O)Nc3ccccc3N3CCOCC3)cc2)n1 | inconclusive [inhibitor, partial curve] | 
15 | Cc1ccc(-n2ncc3c(Nc4ccc(Oc5ccccc5)cc4)ncnc32)cc1 | inconclusive [inhibitor, single point] | 
16 | O=[N+]([O-])c1c(NCCCO)cc(Sc2ccc(Cl)cc2)c2nonc12 | active: 1.3 µM | 
17 | CN1CCN(C(c2ccc(Cl)cc2)c2cc(Cl)c3cccnc3c2O)CC1 (stereo not given) | inconclusive [inhibitor, single point] | 
18 | Cn1c(CCN2CCN(c3ccccc3)CC2)nc2cc(NC(=O)c3ccco3)ccc21 | inconclusive [inhibitor, single point] | 
19 | COc1ccc(CNC(=O)COC(=O)c2c(NC(C)=O)sc(C)c2C)cc1OC | inconclusive [inhibitor, single point] | 
20 | Cc1c(C(=O)NCCn2ccc3ccccc32)cccc1[N+](=O)[O-] | inactive | 
21 | O=C1CCC[C@@H]2C[C@@]3(C[C@@H]4CCN1[C@H]24)Nc1cc(Cl)ccc1NC3=NCc1ccccc1 | inconclusive [inhibitor, single point] | 
22 | Cc1csc(NC(=O)CSc2nc3[nH]ncc3c(=O)[nH]2)n1 | inconclusive [inhibitor, single point] | 
23 | CC/C(=N\NC(=O)c1c(C)nc2ccccn12)c1ccccc1 | inactive | 
24 | COCCn1c(C)cc(O)c(C(c2ccccc2)N2CCCCC2)c1=O (stereo not given) | inactive | 
25 | CN(C)c1cccc(C(=O)N2CCCC(CCC(=O)N3CCN(c4ccccn4)CC3)C2)c1 (stereo not given) | inconclusive [inhibitor, partial curve] | 

Row | Compound | Potency | activity change, negative = growth inhibition
26 | CCCOc1ccc(NC(=O)CC2C(=O)N(CC)C(=S)N2Cc2cccs2)cc1 (stereo not given) | inconclusive [inhibitor, partial curve] | 
27 | Cc1cccc(N2CCN(C(=O)c3cc4ccc5cccnc5c4[nH]3)CC2)c1C | active: 23.1 µM | 
28 | O=C(Oc1ccc(N(Cc2cccs2)C2=NS(=O)(=O)c3ccccc32)cc1)c1ccccc1 | inconclusive [inhibitor, single point] | 
29 | Cc1cc(C)cc(C(=O)Nc2ccc(N3CCN(C(=O)c4ccco4)CC3)cc2)c1 | inconclusive [inhibitor, single point] | 
30 | O=C(CN1C(=O)NC2(CCCc3ccccc32)C1=O)Nc1ccccc1OC(F)F (stereo not given) | inactive | 
31 | C=CCOC(=O)C1=C(C)NC(SC)=C(C#N)C1c1ccc(OCC)cc1 (stereo not given) | inconclusive [inhibitor, single point] | 
32 | CCOc1ccc2nc(NC(=O)c3cc([N+](=O)[O-])ccc3N3CCOCC3)sc2c1 | inconclusive [inhibitor, single point] | 
33 | O=C(c1cccc(S(=O)(=O)N2CCCC2)c1)c1cccc(S(=O)(=O)N2CCCC2)c1 | inactive | 
34 | NC(CCc1ccccc1)c1csc(Nc2ccc(C(=O)NCCO)cc2)n1 (stereo not given) | inconclusive [inhibitor, single point] | 
35 | CCOc1ncccc1C(=O)OCc1c(F)cccc1Cl | inactive | 
36 | Cc1ccc(S(=O)(=O)N2CCCCC2CCNC(=O)C(=O)NCC2CCCO2)cc1 (stereo not given) | inconclusive [inhibitor, single point] | 
37 | CCCN(CCC)CCNC(=O)c1cc2c(=O)oc3ccc(C)cc3c2s1 | inconclusive [inhibitor, single point] | 
38 | COc1ccc(-c2noc(CCC(=O)NC3CCCCCC3)n2)cc1 | inconclusive [inhibitor, single point] | 
39 | O=C(Nc1ccc(O)c2c(=O)cc(-c3cccc(Cl)c3)oc12)c1cccc(Cl)c1 | active: 7.31 µM | 
40 | COc1ccc(NC(=O)c2cc(C3CC3)nc3c2c(C)nn3-c2ccccc2)c(OC)c1 | inactive | 
41 | Cc1c(C(=O)Nc2cccc(C(F)(F)F)c2)sc2nc3n(c(=O)c12)CCC3 | active: 23.1 µM | 
42 | O=C(NC(=S)Nc1nc(-c2ccccc2)cs1)c1ccco1 | inconclusive [inhibitor, single point] | 
43 | Cn1nnc(NC(=O)CSc2ccc(Cl)cc2)n1 | inactive | 
44 | C[C@@H]1CN([C@@H](C)CO)C(=O)c2cc(Br)cnc2O[C@H]1CN(C)Cc1ccc(-c2ccccc2)cc1 | inconclusive [inhibitor, single point] | 
45 | Cc1cccc(CN(C(=S)Nc2c(C)cccc2C)c2cccnc2)c1 | inactive | 
46 | O=C(O)C1OC(Oc2cc3oc(-c4ccccc4)cc(=O)c3c(O)c2O)C(O)C(O)C1O (stereo not given) | active: 23.1 µM | 
47 | C/C(N)=C(/C#N)C(=O)COC(=O)c1cccc(O)c1 | inactive | 
48 | Cn1ccnc1SCc1cn2cc(Br)ccc2n1 | inactive | 
49 | CCN(C(=O)COC(=O)/C(C#N)=C/c1ccc(OC)cc1)C1CCS(=O)(=O)C1 (stereo not given) | inactive | 
50 | Cn1nc(C(F)(F)F)cc1C(=O)Nc1ccc(Cl)cc1 | inactive | 

Row | Compound | Potency | activity change, negative = growth inhibition
51 | COC(=O)c1cccc(NC(=S)N2CCN(c3ccccc3F)CC2)c1 | inactive | 
52 | NC(=O)N1CCc2ccccc21 | inactive | 
53 | CC(C)C[C@H](NC(=O)N1CCn2c1nc1ccccc12)C(=O)NCC1CCCO1 (stereo not given in full) | inactive | 
54 | Cc1ccc(-n2ncc(C(=O)N3CCN(C(=O)c4ccco4)CC3)c2-n2cccc2)cc1 | inconclusive [inhibitor, single point] | 
55 | O=C(O)c1cc(O)c2c(c1)C(=O)c1cc(O)cc(O)c1C2=O | active: 13 µM | 
56 | CCCCCCCCCCCCCCCC[n+]1ccc(C)c2ccccc21 | active: 0.708 µM | 
57 | COc1cc2nc(=S)n3[nH]c(COc4ccccc4C)nc3c2cc1OC | active: 1.16 µM | 
58 | Cc1ccccc1-n1c(-c2csc3ccccc23)n[nH]c1=S | inactive | 
59 | Clc1ccccc1CNCCCSc1nnnn1-c1ccccc1 | inconclusive [inhibitor, single point] | 
60 | Cn1c(SCc2cccc([N+](=O)[O-])c2)nc2c(c1=O)SCC2 | inconclusive [inhibitor, single point] | 
61 | COc1ccc(Nc2nc(N)c([N+](=O)[O-])c(NCCO)n2)cc1 | inactive | 
62 | Cc1cc(Br)ccc1SCC(=O)OCC(=O)Nc1ccc2[nH]c(=O)[nH]c2c1 | inactive | 
63 | Cc1ccc2nc(-c3cccc(Br)c3)c(Cc3ccccn3)n2c1 | active: 20.6 µM | 
64 | O=c1c2ccccc2nc(SCc2ccccc2)n1CC1CCCO1 (stereo not given) | inconclusive [inhibitor, single point] | 
65 | NC(=O)c1cc2ccccc2o/c1=N/NC(=O)c1cccc(Cl)c1 |  | inconclusive: -32.5% [inhibitor]
66 | COc1cc([N+](=O)[O-])ccc1NC(=O)N1CCCCCC1 | inconclusive [inhibitor, single point] | 
67 | COc1cc(CNc2ccc(S(N)(=O)=O)cc2)ccc1OCc1ccccc1F | active: 18.4 µM | 
68 | Cc1cc(C)c2c(NC(=S)Nc3ccccc3)n[nH]c2n1 | inconclusive [inhibitor, single point] | 
69 | COC(=O)c1ccc(NC(=O)C(=O)NCCc2csc3nc(-c4ccccc4F)nn23)cc1 | inactive | 
70 | CC(Sc1nc2cc(Cl)ccc2s1)C(=O)Nc1ccc2c(c1)OCO2 (stereo not given) | inactive | 
71 | CC1=C(C(=O)OC(C)(C)C)C(c2ccc(Br)cc2)NC(=O)N1CCCC(=O)O (stereo not given) | inconclusive [inhibitor, single point] | 
72 | CCCNCCC(c1ccco1)c1ccccc1OC (stereo not given) |  | inconclusive: -30.5% [inhibitor]
73 | CCOC(=O)NC(N(O)c1cccc(Cl)c1)C(Cl)(Cl)Cl (stereo not given) | inconclusive [inhibitor, single point] | 
74 | COc1ccc(CCNC(=O)c2cc(-c3ccc(C)c(C)c3O)n[nH]2)cc1OC | active: 20.6 µM | 
75 | CSC1=NC(C(Cl)(Cl)Cl)N=C(c2ccc(C)cc2)N1 (stereo not given) | active: 0.82 µM | 
